{"source": "PubChem BioAssay AID504332", "about": "(National Center for Advancing Translational Sciences (NCATS), 2011)", "note": "Hit rate of the full screen: of about 350,000 compounds, about 31,000 (8.9%) were called active. Inconclusive means that the source gave no clear call. Such entries were picked first, then a sample of the others. The call rests on the fitted dose curve; in most records, active means well fitted inhibition curve with a large enough effect; inconclusive means small, poorly fitted or top-dose-only effect; inactive means no such curve, though single readings can be large or run the other way. A potency beside an inconclusive call is a rough fit, not a confirmed value."}
{"target": "Histone-lysine N-methyltransferase EHMT2 (Homo sapiens) (UniProt Q96KQ7)", "sequence (Q96KQ7 whole entry, looked up)": "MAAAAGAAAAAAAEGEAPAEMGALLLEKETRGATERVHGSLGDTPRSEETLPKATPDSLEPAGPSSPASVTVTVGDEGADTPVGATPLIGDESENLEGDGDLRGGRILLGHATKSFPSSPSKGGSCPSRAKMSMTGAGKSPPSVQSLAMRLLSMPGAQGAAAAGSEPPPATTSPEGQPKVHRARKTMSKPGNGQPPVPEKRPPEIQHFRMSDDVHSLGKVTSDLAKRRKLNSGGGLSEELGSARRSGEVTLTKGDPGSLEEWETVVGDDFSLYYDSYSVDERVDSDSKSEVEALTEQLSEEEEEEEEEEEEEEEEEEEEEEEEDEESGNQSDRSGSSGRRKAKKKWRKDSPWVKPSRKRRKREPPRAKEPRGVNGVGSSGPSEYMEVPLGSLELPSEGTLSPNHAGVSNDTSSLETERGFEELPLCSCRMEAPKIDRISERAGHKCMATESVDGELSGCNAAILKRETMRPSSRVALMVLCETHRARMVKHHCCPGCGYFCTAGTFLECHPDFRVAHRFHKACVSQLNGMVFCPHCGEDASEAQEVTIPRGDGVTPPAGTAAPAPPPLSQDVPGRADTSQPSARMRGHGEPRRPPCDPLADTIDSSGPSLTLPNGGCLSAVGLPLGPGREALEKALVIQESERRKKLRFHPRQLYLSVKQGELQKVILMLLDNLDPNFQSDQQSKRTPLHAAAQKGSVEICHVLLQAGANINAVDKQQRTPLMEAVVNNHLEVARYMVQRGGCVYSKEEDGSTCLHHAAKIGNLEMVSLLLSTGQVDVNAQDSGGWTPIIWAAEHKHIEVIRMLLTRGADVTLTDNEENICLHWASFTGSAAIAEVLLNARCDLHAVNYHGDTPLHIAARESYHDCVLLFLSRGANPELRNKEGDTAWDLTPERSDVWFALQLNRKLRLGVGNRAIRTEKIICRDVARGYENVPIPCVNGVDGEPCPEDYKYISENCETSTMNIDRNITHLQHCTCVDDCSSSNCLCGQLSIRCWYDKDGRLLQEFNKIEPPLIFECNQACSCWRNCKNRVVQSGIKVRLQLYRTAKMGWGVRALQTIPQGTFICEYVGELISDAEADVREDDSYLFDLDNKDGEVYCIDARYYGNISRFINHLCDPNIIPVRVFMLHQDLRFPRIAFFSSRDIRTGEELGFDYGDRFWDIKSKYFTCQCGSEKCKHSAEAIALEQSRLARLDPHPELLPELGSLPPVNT", "assay": "qHTS Assay for Inhibitors of Histone Lysine Methyltransferase G9a; further: nearly all actives have a fitted effect of over 75% in size; further: potency means the concentration at half of the fitted maximal effect; tags describe the fitted curve by direction and shape; on activity, negative = inhibition: on the % scale 0 is the no-effect control and ±100 the full control effect", "settings": "G9a H3K9 monomethylation, AlphaScreen, 2 h; activity, negative = inhibition: at 59 µM (top of the series) unless noted", "how_it_was_run": "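AlphaScreen detection with an anti-monomethyl H3K9 antibody quantified product after a 2 h room-temperature reaction containing 500 nM biotinylated H3K9 peptide, 20 µM SAM and 20 nM enzyme, which had been preincubated 15 min with compound.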"}
{"molecule": "CC1(C)OC(=O)C(=CNC(Cc2c[nH]c3ccccc23)C(=O)O)C(=O)O1", "note": "(centres undefined)", "Potency": "inconclusive: 79.4 µM [inhibitor, single point]"}
{"molecule": "CCc1ccc(CN2CCc3nc(N4CCN(CC)CC4)ncc3C2)cc1", "Potency": "inconclusive: 28.2 µM [inhibitor, single point]"}
{"molecule": "CN(C)c1ccc(CNC(=O)CCn2cccn2)cc1", "Potency": "inconclusive: 39.8 µM [inhibitor, single point]"}
{"molecule": "O=C(CCc1nnc2ccc(NCc3ccco3)nn12)Nc1cccc(F)c1", "Potency": "inconclusive: 20 µM [inhibitor, single point]"}
{"molecule": "O=C(NCC(c1ccco1)N1CCc2ccccc21)c1ccccc1", "note": "(centres undefined)", "Potency": "active: 50.1 µM"}
{"molecule": "CCOc1ccc(C(=O)NC(=S)Nc2ccccc2N2CCC(C)CC2)cc1[N+](=O)[O-]", "activity, negative = inhibition": "inactive: -4.12%"}
{"molecule": "CN(C)CCn1c(SCc2ccccc2C#N)nc2c(sc3ccccc32)c1=O", "Potency": "inconclusive: 79.4 µM [inhibitor, single point]"}
{"molecule": "CC1Cc2ccccc2N1Cc1nc2cc(C(F)(F)F)ccc2c(=O)[nH]1", "note": "(centres undefined)", "Potency": "inconclusive: 35.5 µM [inhibitor, single point]"}
{"molecule": "CC(C)c1cnc2c(c1SCC(=O)Nc1cccc(F)c1)c(=O)n(C)c(=O)n2C", "Potency": "inconclusive: 39.8 µM [inhibitor, single point]"}
{"molecule": "CCN(CC)S(=O)(=O)c1ccc(N2CCCC2)c(NS(=O)(=O)c2cccs2)c1", "Potency": "active: 28.2 µM"}
{"molecule": "CCN(CC(=O)Nc1cc(Cl)ccc1Cl)C(=O)c1ccc(-n2cccn2)cc1", "activity, negative = inhibition": "inactive: 16.2% [at 2.33 µM]"}
{"molecule": "COc1ccc(OC)c(NS(=O)(=O)c2ccc(-c3cc(C)no3)s2)c1", "activity, negative = inhibition": "inactive: -8.76%"}
{"molecule": "Cc1cccc(C(=O)Nc2nnc(S(=O)(=O)N(C)c3ccccc3C)s2)c1", "Potency": "active: 3.16 µM"}
{"molecule": "Cc1ccc(NC(=O)Cn2ncc(Cl)c(Cl)c2=O)cc1S(=O)(=O)N1CCCCC1", "Potency": "inconclusive: 7.08 µM [inhibitor, single point]"}
{"molecule": "COc1ccc(CN(C)C(=O)CCCNC(=O)c2ccc(Cl)cc2)cc1", "Potency": "inconclusive: 89.1 µM [inhibitor, single point]"}
{"molecule": "CC(C)OC(=O)c1ccc(NC(=O)CSc2nc3ncccc3[nH]2)cc1", "activity, negative = inhibition": "inactive: -0.18% [at 102 µM]"}
{"molecule": "Cc1ccc(OCCCCNC2CCCC(C)C2C)c(C)c1", "note": "(centres undefined)", "Potency": "active: 12.6 µM"}
{"molecule": "COc1ccc(N2C(=O)CC(N3CCN(c4ccccc4F)CC3)C2=O)cc1", "note": "(centres undefined)", "Potency": "inconclusive: 35.5 µM [inhibitor, single point]"}
{"molecule": "CCOC(=O)C1=C(N)Oc2ccc3ccccc3c2C1c1ccc(O)cc1", "note": "(centres undefined)", "Potency": "inconclusive: 79.4 µM [inhibitor, single point]"}
